From PMC7804203 (2021) come the findings set out here.

B1: Flag-tagged full-length SLP76 [not stated] / HA-tagged full-length RAGE [not stated] (parent complex)
chain 1: MALRNVPFRSEVLGWDPDSLADYFKKLNYKDCEKAVKKYHIDGARFLNLTENDIQKFPKLRVPILSKLSQEINKNEERRSIFTRKPQVPRFPEETESHEEDNGGWSSFEEDDYESPNDDQDGEDDGDYESPNEEEEAPVEDDADYEPPPSNDEEALQNSILPAKPFPNSNSMYIDRPPSGKTPQQPPVPPQRPMAALPPPPAGRNHSPLPPPQTNHEEPSRSRNHKTAKLPAPSIDRSTKPPLDRSLAPFDREPFTLGKKPPFSDKPSIPAGRSLGEHLPKIQKPPLPPTTERHERSSPLPGKKPPVPKHGWGPDRRENDEDDVHQRPLPQPALLPMSSNTFPSRSTKPSPMNPLPSSHMPGAFSESNSSFPQSASLPPYFSQGPSNRPPIRAEGRNFPLPLPNKPRPPSPAEEENSLNEEWYVSYITRPEAEAALRKINQDGTFLVRDSSKKTTTNPYVLMVLYKDKVYNIQIRYQKESQVYLLGTGLRGKEDFLSVSDIIDYFRKMPLLLIDGKNRGSRYQCTLTHAAGYP
chain 2: not shown

The variants in this test derive from B1. The experiment in a line: co-immunoprecipitation (IP anti-HA, IB anti-Flag), band quantification; HEK293 cells, AGEs +, n = 3; parent: 1; read off a plot.
Regarding chain 1 Y113A, the ratio to parent is approximately 0.7. The value for chain 1 Y145A was approximately 0.77; that for chain 1 Y128A was approximately 0.76.
